Data published in the RNAGym collection of RNA variant scans (doi:10.1073/pnas.2313332121).
Variants at the floor of the assay are shown more often than the library holds them.

B1: TPR 5TU (parent)
chain: GGAUCUUCUCGAUCUAACAAAAAAGACAAAUCUGCCACAAAGCUUGAGAGCAUCUUCGGAUGCAGAGGCGGCAGCCUUCGGUGGCGCGAUAGCGCCAACGUUCUCAACUAUGACACGCAAAACGCGUGCUCCGUUGAAUGGAGUUUAUCAUG

Variants of: B1
Test: polymerase ribozyme fitness, log enrichment relative to wild type (log ratio); higher = more active; in vitro selection for triplet polymerase activity
Procedure, shortened: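 Fitness is a logarithmic measure of how a genotype enriched relative to the wild type, with replicate averages weighted by inverse variance. The logarithm uses base 2, and enrichment came from Illumina sequencing of input and output libraries. Those libraries were PCR-built, transcribed mutants of each subunit of a heterodimeric triplet polymerase ribozyme, passed through one triplicate in vitro selection round that included frozen incubation at −7 °C, gel excision of extended constructs and streptavidin-bead capture. Genotypes were kept only if they had ≥10 input reads and ≥1 read per output.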

Polymerase ribozyme fitness (log ratio), ≤ -4.2:
U56A A66U C96U A110U
U56A A66U G68A U82A C96U
U56A A73U C87U A89U C116U C132U
U56A C57G A119U G128U C131G
U56A C63U C87G A89U
U56A C69U C129G U144G C149A
U56A C72A
U56A C75G U104C C114G A115G
U56A C79U G83U C87A A106U
U56A C87A A113U
U56A C87G C93A
U56A G59U U78C A107G G140C
U56A G62C C63A G88C C149A
U56A G67U A91U C99U A106G U144A
U56A G67U G83U C85U C125U U135A
U56A G71A U77G G88U C116U
U56A G74U A107G
U56A G83A C85U A91G C95U C99A U144G
U56A G83A G128A
U56A G83U C87U C95A A121G G143U
U56A G84U C93A C118U G141A
U56A G88A A120C
U56A G88C C95U U139G
U56A G88U A107G G136A
U56A G92U C103G G140C
U56A G136U U148A
U56A U77G G84C
U56A U78A C93U C116G A137C
U56A U78G G94A U146C
U56A U82A C93A U111C C114U
U56A U82G C87G C103U
U56C C96G G100C
U56C G58A G128U U135C
U56G A66C U82A G88C C96A A115C C116A G126U
U56G A91C C108U C149U
U56G C69A C87A A120C A142C U144A
U56G C69G C87G A106C U135G
U56G C79A U144A
U56G C79U C93A U109C G141C
U56G C85A G86U U134A
U56G C85A G88U G100U C105G C118G
U56G C85U A137U A150C
U56G C87G
U56G C99G C116A G143C U146A
U56G C132U U151G
U56G G67C G86U C103U U104G C116G A119G U146C
U56G G81C G86U G140A
C57A A64C G70U C108G
C57A A64U C116A
C57A A89C U139A
C57A C79A A91U
C57A C79G C87A
C57A C118U C131A A137U A147C
C57A G58C G86C C116G G117C
C57A G59A U61A C87A U135A
C57A G74A A91U G100C U101A C118A
C57A G80A G84U G94A C95A C99U C114U G143A
C57A G88U A106C
C57A G94A G140C G141U
C57A U82A A89G C96U A107G U134A
C57A U82A C125A G141C U148C
C57G A60U C93U G124C A137U
C57G A66C C75U C85G C87U U111C
C57G A91U
C57G A97C C99U U139C
C57G C79A G83U C96U U101A
C57G C79G G84U
C57G C93A G128U
C57G C96A U111G U127C G143C
C57G C103G G124A A147G
C57G G68A C85U U146C
C57G G84U C96A A97U C105G A107U G143C
C57G G128C G136U
C57G U61A G83C G88U
C57G U61A G83U A98U C99G A107G
C57G U61A G86C A137G
C57G U61C G62C A66G G83U C95U
C57G U77A G92U C105A C108G C132A A147C
C57U A66C G71A G94U
C57U A91U A110G
C57U A110C G136C
C57U C76U C85A G126C G133U
C57U C85G A97C U151G
C57U C96G G136U A137U U146C
C57U C108A
C57U G59C C75A C85U
C57U G59C G65A G70A C79A A89U U104A
C57U G81A G84A C85G C93G C123U G133U A147C U151G G152C
C57U G84U C85U C96A C125U U135C
C57U G88U U102C A107G G136U
C57U U61A G65A G71U G83C G140C
C57U U90G
G58A C72A C87A U104C
G58A C75U G83U C95A C131A
G58A C85A G133A G143C U151A
G58A C85U C108A A120C U151C
G58A C99G U111G
G58A C103G C105U U151G
G58A G62A C85G A122G C125A G133A G143A
G58A G62C C87G C93G C96U C123A A142C
G58A G65C C85U C114A C149U
G58A G68U A91U A107G A115G U146G
G58A G71A G92C G143A
G58A U61A G84U U148G
G58A U78G C87G
G58C A60C U146G
G58C A91C C132U G140U
G58C A91U
G58C A91U C95U C129A
G58C C76U U102G A138C
G58C C87G U102G G141U
G58C G62C A91C A106C
G58C G62U C85G A89U U104C A115G
G58C G65A G81C G86C C105U A113G C125A U134G G140A G141U
G58C G67C G71U C87G
G58C G68A C95A
G58C G70C G92C C114G C116U
G58C G71A C99G A137G
G58C G81A A89U C96A A107C U148C
G58C G140U U146G A150C
G58C U61A A66C G88C C99G C132G
G58C U61A U82G A98G C116G U148A
G58C U77G C114A A115G G136U A147U
G58C U78G G92U A107G G143C U148G
G58C U90C C99A
G58C U90G
G58U A60C C79A U102G
G58U A91U U139A U148C
G58U C87A
G58U C87A A106C C118A
G58U G86C A113G U127A U139A U146C
G58U U109C C116U
G59A A60C G86A U104G A110U
G59A A60G G88C
G59A A73G C96U A107U U144G
G59A A91U U148C
G59A A138U
G59A C63A A73G G83A A91C U146A
G59A C63G G68C C85U A119C C131G G141C
G59A C72U C103G A115U C118G A122U G141U A142C
G59A C79G C85U A110G
G59A C79G G86C U151G
G59A C87A G126A
G59A C87U C132G G141C U148A
G59A C93A U135G G141A
G59A C108G C149G
G59A G67U G92A
G59A G68A G74A C85A C118G U144A
G59A G71A A91G G124U G140C
G59A G74C G86U C103U
G59C A64G C85A C87U C93U A110U U111G
G59C C87G U139A
G59C C116G U139G A142C G143C
G59C G62C C85A U109G C129G G143C
G59C G65C C87G
G59C G67C A97G A110G G141C
G59C G68C C79G G81U C95A C132U
G59C G74U U77G C103G A107G A115C G141U
G59C G88U A98G U102G A107U A137U
G59C G94U C105U C118A A150C
G59C U61A C85A C96A C105A U134A
G59U A60C C76U A91G
G59U C69U G94U A98G U102G U135C
G59U G62A G86A U104A
G59U G68U G88C U104G
G59U G74A U77G G86A
G59U G80U G88U U151A
